Measured values reported in a collection of fitness landscapes (doi:10.1016/j.celrep.2020.107928).
Over roughly 81,000 sequences, “one-hybrid fitness for binding parS DNA” has its median near -0.17; the highest 2% begin near 0.51. The list shows a part of the results.

B1: Caulobacter ParB omega fusion; a variant is named by its letters at X, in order, B8GW30 (parent)
chain: MESVVVGEPGMSEGRRGLGRGLSALLGEVDAAPAQAPGEQLGGSREAPIEILQRNPDQPRRTFREEDLEDLSNSIREKGVLQPILVRPSPDTAGEYQIVAGERAWRAAQRAGLKTVPIMVRELDDLAVLEIGIIENVQRADLNVLEEALSYKVLMEKFERTQENIAQTIGKSXSHVANXMRLLXLPDEVQSYLVSGELTAXHARAIAAAADPVALAKQIIEGGLSVRETEALARKAPNLSAGKSKGGRPPRVKDTDTQALESDLSSVLGLDVSIDHRGSTGTLTITYATLEQLDDLCNRLTRGI

Variants of: B1
Assay: one-hybrid fitness for binding parS DNA (scaled: cognate 1, non-cognate 0); higher = stronger binding
Conditions: with parS DNA site
Method in brief: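 Selection: bacterial one-hybrid in E. coli USO, HIS3 reporter with the site 19 bp from the promoter, 48 hours at 37°C on M9-minus-histidine plus 0.1 mM IPTG and 5 mM 3-AT. Libraries were Caulobacter ParB with four randomised specificity codons, sequenced on Illumina before and after selection. Fitness is the rescaled log change in variant-to-wild-type read ratio, anchored to the cognate and non-cognate sites.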

Row | Variant | one-hybrid fitness for binding parS DNA
1 | SMCY | ≤ 0.2
2 | LMTG | ≤ 0.2
3 | SFNW | ≤ 0.2
4 | GPCL | ≤ 0.2
5 | EMHS | ≤ 0.2
6 | TRTQ | ≤ 0.2
7 | RIAN | 0.432
8 | QARK | ≤ 0.2
9 | SCDR | ≤ 0.2
10 | DNHR | ≤ 0.2
11 | GMRM | ≤ 0.2
12 | NKTS | ≤ 0.2
13 | TYKV | ≤ 0.2
14 | RCVE | ≤ 0.2
15 | DRSI | ≤ 0.2
16 | VNCS | ≤ 0.2
17 | HNNL | ≤ 0.2
18 | FYKL | ≤ 0.2
19 | REPT | ≤ 0.2
20 | QCIV | ≤ 0.2
21 | DVFN | ≤ 0.2
22 | WARM | ≤ 0.2
23 | QKSD | ≤ 0.2
24 | HSKE | ≤ 0.2

Row | Variant | one-hybrid fitness for binding parS DNA
25 | IRES | ≤ 0.2
26 | FDIR | ≤ 0.2
27 | PWLK | ≤ 0.2
28 | VCQG | ≤ 0.2
29 | YATI | ≤ 0.2
30 | CLQR | ≤ 0.2
31 | MSNN | ≤ 0.2
32 | YTVW | ≤ 0.2
33 | LGNR | ≤ 0.2
34 | TPDW | ≤ 0.2
35 | KCTV | ≤ 0.2
36 | HIYA | ≤ 0.2
37 | HTGR | ≤ 0.2
38 | YACC | ≤ 0.2
39 | QRPP | ≤ 0.2
40 | FDRR | ≤ 0.2
41 | GLLR | ≤ 0.2
42 | CNSS | ≤ 0.2
43 | GYWG | ≤ 0.2
44 | MSLL | ≤ 0.2
45 | QQAR | ≤ 0.2
46 | WALC | ≤ 0.2
47 | WGHS | ≤ 0.2
48 | QSKC | ≤ 0.2

Row | Variant | one-hybrid fitness for binding parS DNA
49 | TNVR | ≤ 0.2
50 | ANKM | ≤ 0.2
51 | TRNF | ≤ 0.2
52 | EAYR | ≤ 0.2
53 | CATI | ≤ 0.2
54 | NMYI | ≤ 0.2
55 | RLMN | 0.459
56 | WRRA | ≤ 0.2
57 | ERKV | ≤ 0.2
58 | LKQR | ≤ 0.2
59 | MGTG | ≤ 0.2
60 | TCYK | ≤ 0.2
61 | MKFT | ≤ 0.2
62 | WTHP | ≤ 0.2
63 | DPTI | ≤ 0.2
64 | QPWY | ≤ 0.2
65 | DPVG | ≤ 0.2
66 | FRLR | ≤ 0.2
67 | RSWP | ≤ 0.2
68 | VTSK | ≤ 0.2
69 | NVKQ | 0.369
70 | VMGL | ≤ 0.2
71 | FGGC | ≤ 0.2
72 | WSRG | ≤ 0.2

Row | Variant | one-hybrid fitness for binding parS DNA
73 | LLRK | ≤ 0.2
74 | AYPD | ≤ 0.2
75 | TGTE | ≤ 0.2
76 | QTIH | ≤ 0.2
77 | GCAA | ≤ 0.2
78 | EAEG | ≤ 0.2
79 | CPGT | ≤ 0.2
80 | IFHS | ≤ 0.2
81 | DAQW | ≤ 0.2
82 | PPLD | ≤ 0.2
83 | IATE | ≤ 0.2
84 | DHHV | ≤ 0.2
85 | NCER | ≤ 0.2
86 | NNQE | ≤ 0.2
87 | LAIL | ≤ 0.2
88 | RMTT | 0.945
89 | QTEL | ≤ 0.2
90 | NPTC | ≤ 0.2
91 | PVCR | ≤ 0.2
92 | HINA | ≤ 0.2
93 | QLNA | ≤ 0.2
94 | IKTC | ≤ 0.2
95 | GNDS | ≤ 0.2
96 | ANHI | ≤ 0.2

Row | Variant | one-hybrid fitness for binding parS DNA
97 | THVT | ≤ 0.2
98 | CQTT | ≤ 0.2
99 | QELN | 0.3
100 | SVFV | ≤ 0.2
101 | VGSG | ≤ 0.2
102 | NKQR | ≤ 0.2
103 | AAVG | ≤ 0.2
104 | FSAL | ≤ 0.2
105 | PRWV | ≤ 0.2
106 | QVCK | ≤ 0.2
107 | KRAH | ≤ 0.2
108 | PHMH | ≤ 0.2
109 | LHKC | ≤ 0.2
110 | ALMW | ≤ 0.2
111 | EVWS | ≤ 0.2
112 | ISGM | ≤ 0.2
113 | WMML | ≤ 0.2
114 | RNVW | ≤ 0.2
115 | VDCG | ≤ 0.2
116 | LNTN | ≤ 0.2
117 | PCCG | ≤ 0.2
118 | TDVT | ≤ 0.2
119 | HRYK | ≤ 0.2
120 | NGKR | ≤ 0.2

Row | Variant | one-hybrid fitness for binding parS DNA
121 | FSTS | ≤ 0.2
122 | QQFW | ≤ 0.2
123 | VVSV | ≤ 0.2
124 | WTHS | ≤ 0.2
125 | KRAP | ≤ 0.2
126 | NHPW | ≤ 0.2
127 | REHC | ≤ 0.2
128 | MPRT | ≤ 0.2
129 | DPPW | ≤ 0.2
130 | RGHC | 0.59
131 | WTDW | ≤ 0.2
132 | QTCA | ≤ 0.2
133 | CCLR | ≤ 0.2
134 | HQGG | ≤ 0.2
135 | QYSA | ≤ 0.2
136 | RQHP | ≤ 0.2
137 | GPRP | ≤ 0.2
138 | HDMC | ≤ 0.2
139 | DYCS | ≤ 0.2
140 | QITK | ≤ 0.2
141 | FHPR | ≤ 0.2
142 | PAVP | ≤ 0.2
143 | MSRE | ≤ 0.2
144 | VKST | ≤ 0.2

Row | Variant | one-hybrid fitness for binding parS DNA
145 | IQKV | ≤ 0.2
146 | TNIC | ≤ 0.2
147 | QCSS | ≤ 0.2
148 | LPVP | ≤ 0.2
149 | RCFW | 0.256
150 | MTHR | ≤ 0.2
151 | NFAY | ≤ 0.2
152 | NKAA | ≤ 0.2
153 | PLDF | ≤ 0.2
154 | HQTY | ≤ 0.2
155 | VCSD | ≤ 0.2
156 | MQTC | ≤ 0.2
157 | KALW | ≤ 0.2
158 | SRAP | ≤ 0.2
159 | YLWR | ≤ 0.2
160 | VRDT | ≤ 0.2
161 | NFAC | ≤ 0.2
162 | PNWT | ≤ 0.2
163 | VILP | ≤ 0.2
164 | FRPE | ≤ 0.2
165 | DAEE | ≤ 0.2
166 | IENC | ≤ 0.2
167 | DALG | ≤ 0.2
168 | YSQG | ≤ 0.2

Row | Variant | one-hybrid fitness for binding parS DNA
169 | RRSH | ≤ 0.2
170 | WGAY | ≤ 0.2
171 | ADPS | ≤ 0.2
172 | LIRA | ≤ 0.2
173 | LGER | ≤ 0.2
174 | KPHA | ≤ 0.2
175 | SCRF | ≤ 0.2
176 | QDAL | ≤ 0.2
177 | KLEH | ≤ 0.2
178 | WWVG | ≤ 0.2
179 | HFHC | ≤ 0.2
180 | VYWT | ≤ 0.2
181 | DSMG | ≤ 0.2
182 | ESRW | ≤ 0.2
183 | TGLH | ≤ 0.2
184 | MELL | ≤ 0.2
185 | LPRW | ≤ 0.2
186 | DFAS | ≤ 0.2
187 | YNVG | ≤ 0.2
188 | TSML | ≤ 0.2
189 | RYLC | 0.955
190 | AMTN | ≤ 0.2
191 | RIFE | 0.249
192 | RNTR | ≤ 0.2

Row | Variant | one-hybrid fitness for binding parS DNA
193 | PTES | ≤ 0.2
194 | SLYR | ≤ 0.2
195 | HRCL | ≤ 0.2
196 | TYLD | ≤ 0.2
197 | QAGC | ≤ 0.2
198 | QKLR | ≤ 0.2
199 | MATA | ≤ 0.2
200 | SLVS | ≤ 0.2
201 | FAFL | ≤ 0.2
202 | VWHR | ≤ 0.2
203 | ILNQ | ≤ 0.2
204 | EDWY | ≤ 0.2
205 | VREC | ≤ 0.2
206 | DKPR | ≤ 0.2
207 | NMVW | ≤ 0.2
208 | TYTL | ≤ 0.2
209 | GRRC | ≤ 0.2
210 | HQPW | ≤ 0.2
211 | VWSQ | ≤ 0.2
212 | HCYM | ≤ 0.2
213 | PYAW | ≤ 0.2
214 | IRPA | ≤ 0.2
215 | EQCT | ≤ 0.2
216 | LPST | ≤ 0.2

Row | Variant | one-hybrid fitness for binding parS DNA
217 | RIWL | ≤ 0.2
218 | RSNN | 0.445
219 | CRGR | ≤ 0.2
220 | ALPL | ≤ 0.2
221 | YGVH | ≤ 0.2
222 | NWKG | ≤ 0.2
223 | RWPY | ≤ 0.2
224 | YTKH | ≤ 0.2
225 | ECAR | ≤ 0.2
226 | FGDT | ≤ 0.2
227 | SETY | ≤ 0.2
228 | LYNF | ≤ 0.2
229 | QIGN | ≤ 0.2
230 | TQTH | ≤ 0.2
231 | RNAN | 0.301
232 | VNGG | ≤ 0.2
233 | PPPA | ≤ 0.2
234 | SWST | ≤ 0.2
235 | LAIR | ≤ 0.2
236 | DKLS | ≤ 0.2
237 | KINE | ≤ 0.2
238 | FNPC | ≤ 0.2
239 | KPSA | ≤ 0.2
240 | NPCP | ≤ 0.2

Row | Variant | one-hybrid fitness for binding parS DNA
241 | IAAQ | ≤ 0.2
242 | NWVC | ≤ 0.2
243 | GAPD | ≤ 0.2
244 | MPHV | ≤ 0.2
245 | AQRT | ≤ 0.2
246 | FMTY | ≤ 0.2
247 | LEHR | ≤ 0.2
248 | MALF | ≤ 0.2
249 | GVWT | ≤ 0.2
250 | SPPI | ≤ 0.2
251 | NTNS | ≤ 0.2
252 | PAGD | ≤ 0.2
253 | RSQR | ≤ 0.2
254 | ASDA | ≤ 0.2
255 | TPES | ≤ 0.2
256 | TWIS | ≤ 0.2
257 | CVRT | ≤ 0.2
258 | QCNA | ≤ 0.2
259 | DIPF | ≤ 0.2
260 | LGEC | ≤ 0.2
261 | SQGG | ≤ 0.2
262 | TICS | ≤ 0.2
263 | WMPR | ≤ 0.2
264 | NGHR | ≤ 0.2

Row | Variant | one-hybrid fitness for binding parS DNA
265 | CKLS | ≤ 0.2
266 | GQPR | ≤ 0.2
267 | PSNP | ≤ 0.2
268 | QCMW | ≤ 0.2
269 | RRYI | ≤ 0.2
270 | VEPM | ≤ 0.2
271 | QYYF | ≤ 0.2
272 | TYRW | ≤ 0.2
273 | PYEH | ≤ 0.2
274 | IGMR | ≤ 0.2
275 | HSDF | ≤ 0.2
276 | GCRN | ≤ 0.2
277 | LHMS | ≤ 0.2
278 | GNHR | ≤ 0.2
279 | CSTQ | ≤ 0.2
280 | VQEG | ≤ 0.2
281 | EMFA | ≤ 0.2
282 | QSGY | ≤ 0.2
283 | SGVV | ≤ 0.2
284 | VASW | ≤ 0.2
285 | SING | ≤ 0.2
286 | PLHV | ≤ 0.2
287 | DWVF | ≤ 0.2
288 | QDRN | ≤ 0.2

Row | Variant | one-hybrid fitness for binding parS DNA
289 | DTRE | ≤ 0.2
290 | CQPE | ≤ 0.2
291 | TMQS | ≤ 0.2
292 | SYNT | ≤ 0.2
293 | TKSM | ≤ 0.2
294 | TPHC | ≤ 0.2
295 | MWGS | ≤ 0.2
296 | CRVT | ≤ 0.2
297 | VWMG | ≤ 0.2
298 | YIKV | ≤ 0.2
299 | PVLG | ≤ 0.2
300 | PHPM | ≤ 0.2
301 | NSLS | ≤ 0.2
302 | EWKG | ≤ 0.2
303 | QEIT | ≤ 0.2
304 | CLPG | ≤ 0.2
305 | LYAL | ≤ 0.2
306 | GVPL | ≤ 0.2
